# The other results are listed elsewhere or left out.
# Assays:
# Assay in all cases: glycan array binding signal (z-score within array); higher = stronger binding
# Conditions in all cases: glycan notation: IUPAC condensed, linker removed
# [1] = molecular target: Gal(b1-4)GlcNAc(b1-2)[Gal(b1-4)GlcNAc(b1-6)]Man(a1-6)[Gal(b1-4)GlcNAc(b1-2)Man(a1-3)]Man(b1-4)GlcNAc(b1-4)[Fuc(a1-6)]GlcNAc
# How it was run: (§1)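 Glycan array data came from 3228 arrays in the Consortium for Functional Glycomics database, and only arrays with an available protein sequence were kept. Glycan names were put into IUPAC-condensed notation, and columns mapping to the same glycan were averaged. The binding signal is a within-array Z-score, averaged across arrays of one protein sequence run at different concentrations or buffers and across linkers. A negative Z-score can be read as non-binding.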
# [2] = molecular target: Gal(b1-4)GlcNAc(b1-2)[Gal(b1-4)GlcNAc(b1-6)]Man(a1-6)[GlcNAc(b1-4)][Gal(b1-4)GlcNAc(b1-2)Man(a1-3)]Man(b1-4)GlcNAc(b1-4)GlcNAc
# How it was run: as §1
# [3] = molecular target: Gal(b1-4)GlcNAc(b1-2)[Gal(b1-4)GlcNAc(b1-6)]Man(a1-6)[GlcNAc(b1-4)][Gal(b1-4)GlcNAc(b1-2)[Gal(b1-4)GlcNAc(b1-4)]Man(a1-3)]Man(b1-4)GlcNAc(b1-4)[Fuc(a1-6)]GlcNAc
# How it was run: as §1
# [4] = molecular target: Gal(b1-4)GlcNAc(b1-3)Gal(b1-3)GalNAc
# How it was run: as §1
# [5] = molecular target: Gal(b1-4)GlcNAc(b1-3)Gal(b1-3)GlcNAc
# How it was run: as §1
# [6] = molecular target: Gal(b1-4)GlcNAc(b1-3)Gal(b1-4)Glc
# How it was run: as §1
# [7] = molecular target: Gal(b1-4)GlcNAc(b1-3)Gal(b1-4)GlcNAc
# How it was run: as §1
# [8] = molecular target: Gal(b1-4)GlcNAc(b1-3)Gal(b1-4)GlcNAc(b1-2)Man(a1-3)[Gal(b1-4)GlcNAc(b1-3)Gal(b1-4)GlcNAc(b1-2)Man(a1-6)]Man(b1-4)GlcNAc(b1-4)GlcNAc
# How it was run: as §1
# [9] = molecular target: Gal(b1-4)GlcNAc(b1-3)Gal(b1-4)GlcNAc(b1-2)Man(a1-3)[Gal(b1-4)GlcNAc(b1-3)Gal(b1-4)GlcNAc(b1-2)Man(a1-6)]Man(b1-4)GlcNAc(b1-4)[Fuc(a1-6)]GlcNAc
# How it was run: as §1
# [10] = molecular target: Gal(b1-4)GlcNAc(b1-3)Gal(b1-4)GlcNAc(b1-2)[Gal(b1-4)GlcNAc(b1-3)Gal(b1-4)GlcNAc(b1-6)]Man(a1-6)[Gal(b1-4)GlcNAc(b1-3)Gal(b1-4)GlcNAc(b1-2)Man(a1-3)]Man(b1-4)GlcNAc(b1-4)GlcNAc
# How it was run: as §1
# [11] = molecular target: Gal(b1-4)GlcNAc(b1-3)Gal(b1-4)GlcNAc(b1-2)[Gal(b1-4)GlcNAc(b1-3)Gal(b1-4)GlcNAc(b1-6)]Man(a1-6)[Gal(b1-4)GlcNAc(b1-3)Gal(b1-4)GlcNAc(b1-2)Man(a1-3)]Man(b1-4)GlcNAc(b1-4)[Fuc(a1-6)]GlcNAc
# How it was run: as §1
# [12] = molecular target: Gal(b1-4)GlcNAc(b1-3)Gal(b1-4)GlcNAc(b1-3)Gal(b1-4)GlcNAc
# How it was run: as §1
# [13] = molecular target: Gal(b1-4)GlcNAc(b1-3)Gal(b1-4)GlcNAc(b1-3)Gal(b1-4)GlcNAc(b1-2)Man(a1-3)[Gal(b1-4)GlcNAc(b1-3)Gal(b1-4)GlcNAc(b1-3)Gal(b1-4)GlcNAc(b1-2)Man(a1-6)]Man(b1-4)GlcNAc(b1-4)GlcNAc
# How it was run: as §1
# [14] = molecular target: Gal(b1-4)GlcNAc(b1-3)Gal(b1-4)GlcNAc(b1-3)Gal(b1-4)GlcNAc(b1-2)Man(a1-3)[Gal(b1-4)GlcNAc(b1-3)Gal(b1-4)GlcNAc(b1-3)Gal(b1-4)GlcNAc(b1-2)Man(a1-6)]Man(b1-4)GlcNAc(b1-4)[Fuc(a1-6)]GlcNAc
# How it was run: as §1
# [15] = molecular target: Gal(b1-4)GlcNAc(b1-3)Gal(b1-4)GlcNAc(b1-3)Gal(b1-4)GlcNAc(b1-2)[Gal(b1-4)GlcNAc(b1-3)Gal(b1-4)GlcNAc(b1-3)Gal(b1-4)GlcNAc(b1-6)]Man(a1-6)[Gal(b1-4)GlcNAc(b1-3)Gal(b1-4)GlcNAc(b1-3)Gal(b1-4)GlcNAc(b1-2)Man(a1-3)]Man(b1-4)GlcNAc(b1-4)[Fuc(a1-6)]GlcNAc
# How it was run: as §1
# [16] = molecular target: Gal(b1-4)GlcNAc(b1-3)Gal(b1-4)GlcNAc(b1-3)Gal(b1-4)GlcNAc(b1-3)Gal(b1-4)GlcNAc(b1-2)Man(a1-3)[Gal(b1-4)GlcNAc(b1-3)Gal(b1-4)GlcNAc(b1-3)Gal(b1-4)GlcNAc(b1-3)Gal(b1-4)GlcNAc(b1-2)Man(a1-6)]Man(b1-4)GlcNAc(b1-4)GlcNAc
# How it was run: as §1
# [17] = molecular target: Gal(b1-4)GlcNAc(b1-3)Gal(b1-4)GlcNAc(b1-3)Gal(b1-4)GlcNAc(b1-3)Gal(b1-4)GlcNAc(b1-2)Man(a1-3)[Gal(b1-4)GlcNAc(b1-3)Gal(b1-4)GlcNAc(b1-3)Gal(b1-4)GlcNAc(b1-3)Gal(b1-4)GlcNAc(b1-2)Man(a1-6)]Man(b1-4)GlcNAc(b1-4)[Fuc(a1-6)]GlcNAc
# How it was run: as §1
# [18] = molecular target: Gal(b1-4)GlcNAc(b1-3)Gal(b1-4)GlcNAc(b1-3)Gal(b1-4)GlcNAc(b1-3)Gal(b1-4)GlcNAc(b1-2)[Gal(b1-4)GlcNAc(b1-3)Gal(b1-4)GlcNAc(b1-3)Gal(b1-4)GlcNAc(b1-3)Gal(b1-4)GlcNAc(b1-6)]Man(a1-6)[Gal(b1-4)GlcNAc(b1-3)Gal(b1-4)GlcNAc(b1-3)Gal(b1-4)GlcNAc(b1-3)Gal(b1-4)GlcNAc(b1-2)Man(a1-3)]Man(b1-4)GlcNAc(b1-4)[Fuc(a1-6)]GlcNAc
# How it was run: as §1
# [19] = molecular target: Gal(b1-4)GlcNAc(b1-3)Gal(b1-4)GlcNAc(b1-3)Gal(b1-4)GlcNAc(b1-3)Gal(b1-4)GlcNAc(b1-3)Gal(b1-4)GlcNAc(b1-2)Man(a1-3)[Gal(b1-4)GlcNAc(b1-3)Gal(b1-4)GlcNAc(b1-3)Gal(b1-4)GlcNAc(b1-3)Gal(b1-4)GlcNAc(b1-3)Gal(b1-4)GlcNAc(b1-2)Man(a1-6)]Man(b1-4)GlcNAc(b1-4)GlcNAc
# How it was run: as §1
# [20] = molecular target: Gal(b1-4)GlcNAc(b1-3)Gal(b1-4)GlcNAc(b1-3)Gal(b1-4)GlcNAc(b1-3)Gal(b1-4)GlcNAc(b1-3)Gal(b1-4)GlcNAc(b1-2)Man(a1-3)[Gal(b1-4)GlcNAc(b1-3)Gal(b1-4)GlcNAc(b1-3)Gal(b1-4)GlcNAc(b1-3)Gal(b1-4)GlcNAc(b1-3)Gal(b1-4)GlcNAc(b1-2)Man(a1-6)]Man(b1-4)GlcNAc(b1-4)[Fuc(a1-6)]GlcNAc
# How it was run: as §1
# [21] = molecular target: Gal(b1-4)GlcNAc(b1-3)Gal(b1-4)GlcNAc(b1-3)Gal(b1-4)GlcNAc(b1-3)Gal(b1-4)GlcNAc(b1-3)Gal(b1-4)GlcNAc(b1-2)[Gal(b1-4)GlcNAc(b1-3)Gal(b1-4)GlcNAc(b1-3)Gal(b1-4)GlcNAc(b1-3)Gal(b1-4)GlcNAc(b1-3)Gal(b1-4)GlcNAc(b1-6)]Man(a1-6)[Gal(b1-4)GlcNAc(b1-3)Gal(b1-4)GlcNAc(b1-3)Gal(b1-4)GlcNAc(b1-3)Gal(b1-4)GlcNAc(b1-3)Gal(b1-4)GlcNAc(b1-2)Man(a1-3)]Man(b1-4)GlcNAc(b1-4)[Fuc(a1-6)]GlcNAc
# How it was run: as §1
# [22] = molecular target: Gal(b1-4)GlcNAc(b1-3)Gal(b1-4)GlcNAc(b1-3)Gal(b1-4)GlcNAc(b1-3)Gal(b1-4)GlcNAc(b1-3)Gal(b1-4)GlcNAc(b1-3)Gal(b1-4)GlcNAc(b1-2)Man(a1-3)[Gal(b1-4)GlcNAc(b1-3)Gal(b1-4)GlcNAc(b1-3)Gal(b1-4)GlcNAc(b1-3)Gal(b1-4)GlcNAc(b1-3)Gal(b1-4)GlcNAc(b1-3)Gal(b1-4)GlcNAc(b1-2)Man(a1-6)]Man(b1-4)GlcNAc(b1-4)GlcNAc
# How it was run: as §1
# [23] = molecular target: Gal(b1-4)GlcNAc(b1-3)Gal(b1-4)GlcNAc(b1-3)GalNAc
# How it was run: as §1
binder,measurement,setting,value
AFCNVH (Aspergillus fumigatus) (protein) MSLRGFHTTCDTIVLKDKHILSSRCKRPDGTYSFSEIDLNDCLGNNNGKFVWGGESFVDSASQVNLALEGGEGRPMLHAQLNDWHGSVQSASVNLGECIQNEAGGLEYMHC,glycan array binding signal (z-score),[1],-0.378
same,glycan array binding signal (z-score),[2],-0.12
same,glycan array binding signal (z-score),[3],-0.36
same,glycan array binding signal (z-score),[4],-0.399
same,glycan array binding signal (z-score),[5],-0.444
same,glycan array binding signal (z-score),[6],-0.356
same,glycan array binding signal (z-score),[7],-0.186
same,glycan array binding signal (z-score),[8],-0.311
same,glycan array binding signal (z-score),[9],-0.278
same,glycan array binding signal (z-score),[10],-0.102
same,glycan array binding signal (z-score),[11],0.152
same,glycan array binding signal (z-score),[12],-0.18
same,glycan array binding signal (z-score),[13],-0.207
same,glycan array binding signal (z-score),[14],-0.103
same,glycan array binding signal (z-score),[15],0.177
same,glycan array binding signal (z-score),[16],-0.056
same,glycan array binding signal (z-score),[17],-0.138
same,glycan array binding signal (z-score),[18],-0.033
same,glycan array binding signal (z-score),[19],-0.158
same,glycan array binding signal (z-score),[20],0.107
same,glycan array binding signal (z-score),[21],0.243
same,glycan array binding signal (z-score),[22],0.173
same,glycan array binding signal (z-score),[23],-0.376

# Reference: the supplement of paper PMC8728848
